Experimental data published in PubChem BioAssay AID1963845 (Molecular Pharmacology Branch, DTP, NCI, 2024).
Certain results were filed several times, with different values. The other results are left out here. An entry can have further records. Values that stand side by side are repeats across runs, samples, wells, individuals or studies. Brackets with × stand for listed records that agree.

Tested on: 429239-143-T-J1-PDC complex spheroid viability
Assay: Anticancer human tumor 429239-143-T-J1-PDC patient-derived small cell lung carcinoma cell line growth inhibition [POLQ]
Conditions: stronger effect = lower value
Experimental: Multicellular complex tumor spheroid response to Polymerase (POL) inhibitors (novobiocin, ART-558, RP6685) in combination with a variety of drugs and investigational agents in selected tumor cell lines
The POL inhibitors (novobiocin, ART-558, and RP6685) were evaluated both individually and in combination with standard of care and investigational anticancer small molecules within a complex spheroid model of solid tumors. . Complex spheroids include a stromal component modeled by human endothelial cells (HUVEC) and fibroblasts modeled by human mesenchymal stem cells (MSCs). The concentration ranges selected for each drug and investigational agent were based upon clinically achievable concentrations if the clinical Cmax of the agent was known.
Compounds. The drugs and investigational agents: novobiocin (NSC847541), ART-558 (NSC835418), RP-6685 (NSC848927), peposertib (NSC802822), ceralasertib (NSC780249), elimusertib (NSC800525), camonsertib (NSC841442), AZD-1390 (NSC803789), olaparib (NSC753686), talazoparib (NSC767125), rucaparib (NSC756644), sotorasib (NSC818433), MRTX-1133 (NSC836407), SN-38 (NSC673596), topotecan (NSC609699), epotoside (NSC141540), doxorubicin (NSC123127), gemcitabine (NSC613327), 5-fluorouracil (NSC19893), paclitaxel (NSC125973), vemurafenib (NSC761431), MSA-2 (NSC828583), SN-011 (NSC837082), adavosertib (NSC754352), prexasertib (NSC758257), carboplatin (NSC241240) and oxaliplatin (NSC266046), were obtained from the National Cancer Institute (NCI) Developmental Therapeutics Program Chemical Repository (21). The FDA-approved anticancer drug set is available from the Developmental Therapeutics Program at https://dtp.cancer.gov/organization/dscb/obtaining/. […] The stock solutions were prepared in dimethyl sulfoxide (DMSO, Sigma-Aldrich, St. Louis, MO, cat. D2650), except for the platinum compounds which were prepared in saline (Quality Biological, Gaithersburg, MD, cat. 114-055-101), at 800-fold the tested concentration and stored at -70 degrees C prior to their use. All drugs and investigational agents were tested over a range starting from a high concentration at or near the clinical Cmax and decreasing in half-log increments. If the clinical Cmax for an agent had not been determined, the highest concentration tested was 10 microM, except for SN-38, which was tested at a high concentration of 1 microM.
Cell Culture. All cells were maintained in an incubator at 37 degrees C and 5% CO2 with 95% humidity. The PDC lines were cultured according to standard operating procedures established by the NCI PDMR (https://pdmr.cancer.gov). Table 3 of the manuscript, lists the cell lines along with the number of the three cell types plated to form the mct-spheroids and media for tumor cell growth. […]
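Further: luminescence signal used as surrogate measure of viable cells; spheroids exposed to compounds for seven days before readout; 100% = DMSO vehicle control viability as luminescence relative to vehicle.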

| SMILES | viability, T/C (compound alone 3.16 µM) | viability, T/C (compound alone 1 µM) | viability, T/C (compound alone 10 µM) |
| --- | --- | --- | --- |
| Nc1ccc(C#CCN(C(=O)Cc2ncc(C(F)(F)F)cc2C(F)(F)F)c2ccc(F)cc2)nn1 | 104 (2×), 108 (2×), 106 (2×), 109, 113, 107, 105, 122, 116, 93.1% | – | – |
| COC1C(OC(N)=O)C(O)C(Oc2ccc3c(O)c(NC(=O)c4ccc(O)c(CC=C(C)C)c4)c(=O)oc3c2C)OC1(C)C (centres undefined) | – | 102, 116, 109, 105 (2×), 103, 120, 110, 108, 123, 97.3, 101, 99% | 100, 109, 98.4, 91.8, 85.1, 96.7, 81.7, 89.3, 105 (2×), 103, 85.5, 97.7% |
| COc1ccc([C@@H](O)c2cc(-c3ncnc4cc(N5CCOCC5)ccc34)c(F)cc2Cl)nn1 | – | – | 13.8%, 8.72%, 49.9% |
